This experiment concerns the target T1, PCC1 fused to the C-terminal or the N-terminal half of YFP (Arabidopsis thaliana) (UniProt Q94C26).
T1 sequence: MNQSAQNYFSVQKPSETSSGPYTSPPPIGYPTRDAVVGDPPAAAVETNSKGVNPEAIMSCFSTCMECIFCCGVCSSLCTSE
As to the kind of experiment: split reporter; BiFC: pairs of proteins each fused to half of YFP (pYFC43, pYFN43), transient co-transformation of Nicotiana benthamiana leaves by agroinfiltration; confocal microscopy.

Sequences of proteins named here, by UniProt entry; tags and fusion partners are left off.
UniProt Q39057: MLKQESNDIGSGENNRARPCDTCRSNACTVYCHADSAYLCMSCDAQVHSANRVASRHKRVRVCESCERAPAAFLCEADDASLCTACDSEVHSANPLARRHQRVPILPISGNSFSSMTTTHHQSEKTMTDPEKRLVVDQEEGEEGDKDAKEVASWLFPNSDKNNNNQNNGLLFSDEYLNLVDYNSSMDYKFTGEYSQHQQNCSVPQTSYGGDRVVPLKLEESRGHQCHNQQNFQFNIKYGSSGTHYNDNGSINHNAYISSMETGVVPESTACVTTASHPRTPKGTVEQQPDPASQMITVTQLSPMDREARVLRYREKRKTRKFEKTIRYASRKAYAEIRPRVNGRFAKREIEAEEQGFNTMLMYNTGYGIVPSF
UniProt Q8LAZ7: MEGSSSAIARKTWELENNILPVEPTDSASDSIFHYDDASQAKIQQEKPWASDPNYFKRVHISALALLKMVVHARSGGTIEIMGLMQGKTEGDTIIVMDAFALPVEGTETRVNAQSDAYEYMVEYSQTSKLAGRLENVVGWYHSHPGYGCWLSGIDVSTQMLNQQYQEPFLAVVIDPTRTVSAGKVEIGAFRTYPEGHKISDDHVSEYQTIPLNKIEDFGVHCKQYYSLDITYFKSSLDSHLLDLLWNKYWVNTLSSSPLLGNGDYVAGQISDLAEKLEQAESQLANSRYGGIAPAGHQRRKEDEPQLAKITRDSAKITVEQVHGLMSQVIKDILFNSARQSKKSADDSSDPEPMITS
UniProt Q9SXZ2: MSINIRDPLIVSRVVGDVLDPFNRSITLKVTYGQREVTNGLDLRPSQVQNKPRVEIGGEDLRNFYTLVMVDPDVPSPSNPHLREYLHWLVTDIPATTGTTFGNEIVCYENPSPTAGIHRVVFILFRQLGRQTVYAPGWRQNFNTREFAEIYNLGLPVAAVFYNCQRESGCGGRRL

Results are given in words; binding and its absence hold for the method and conditions named. Binding seen in cells or lysates may run through a third protein. Some entries that bind do so weakly or less than the wild type. Tags and fused reporters may be left off the sequences shown.

In the case of “CONSTANS (CO) fused to half of YFP (from UniProt Q39057 1-373)”, the binding entry is “no binding”.

Consider “CSN5A subunit of the COP9 signalosome fused to half of YFP (from UniProt Q8LAZ7 1-357)”, for which the binding entry is recorded as “binds”.

In the case of “FLOWERING LOCUS T (FT) fused to half of YFP (from UniProt Q9SXZ2 1-175)”, the binding result is given as “no binding”.

These data come from PMC3903633.
